Assay results as given in PubChem BioAssay AID504332 (National Center for Advancing Translational Sciences (NCATS), 2011).
The campaign covered roughly 350,000 compounds. About 31,000 (8.9%) were called active. This list was built around the results that the source calls inconclusive (neither active nor inactive); the mix of calls is not that of the screen. Calls come from the whole dose curve; as a rule, active = well fitted inhibition curve with a large enough effect; inconclusive = small, poorly fitted or top-dose-only effect; inactive = no such curve, though single readings can be large or run the other way. Potencies of inconclusive entries are doubtful fits and often do not repeat.
% is set by controls: 0 for no effect and ±100 for the full control effect; potency is the fitted concentration of half-maximal effect; tags give direction and shape of the fitted curve.
Note: nearly all actives have a fitted effect of over 75% in size.

What follows are molecules tested against Histone-lysine N-methyltransferase EHMT2 (Homo sapiens) (UniProt Q96KQ7) (assay: qHTS Assay for Inhibitors of Histone Lysine Methyltransferase G9a). Conditions: G9a H3K9 monomethylation, AlphaScreen, 2 h; activity, negative = inhibition: at 59 µM (top of the series) unless noted.
Chain of UniProt Q96KQ7 (Q96KQ7 whole entry, looked up): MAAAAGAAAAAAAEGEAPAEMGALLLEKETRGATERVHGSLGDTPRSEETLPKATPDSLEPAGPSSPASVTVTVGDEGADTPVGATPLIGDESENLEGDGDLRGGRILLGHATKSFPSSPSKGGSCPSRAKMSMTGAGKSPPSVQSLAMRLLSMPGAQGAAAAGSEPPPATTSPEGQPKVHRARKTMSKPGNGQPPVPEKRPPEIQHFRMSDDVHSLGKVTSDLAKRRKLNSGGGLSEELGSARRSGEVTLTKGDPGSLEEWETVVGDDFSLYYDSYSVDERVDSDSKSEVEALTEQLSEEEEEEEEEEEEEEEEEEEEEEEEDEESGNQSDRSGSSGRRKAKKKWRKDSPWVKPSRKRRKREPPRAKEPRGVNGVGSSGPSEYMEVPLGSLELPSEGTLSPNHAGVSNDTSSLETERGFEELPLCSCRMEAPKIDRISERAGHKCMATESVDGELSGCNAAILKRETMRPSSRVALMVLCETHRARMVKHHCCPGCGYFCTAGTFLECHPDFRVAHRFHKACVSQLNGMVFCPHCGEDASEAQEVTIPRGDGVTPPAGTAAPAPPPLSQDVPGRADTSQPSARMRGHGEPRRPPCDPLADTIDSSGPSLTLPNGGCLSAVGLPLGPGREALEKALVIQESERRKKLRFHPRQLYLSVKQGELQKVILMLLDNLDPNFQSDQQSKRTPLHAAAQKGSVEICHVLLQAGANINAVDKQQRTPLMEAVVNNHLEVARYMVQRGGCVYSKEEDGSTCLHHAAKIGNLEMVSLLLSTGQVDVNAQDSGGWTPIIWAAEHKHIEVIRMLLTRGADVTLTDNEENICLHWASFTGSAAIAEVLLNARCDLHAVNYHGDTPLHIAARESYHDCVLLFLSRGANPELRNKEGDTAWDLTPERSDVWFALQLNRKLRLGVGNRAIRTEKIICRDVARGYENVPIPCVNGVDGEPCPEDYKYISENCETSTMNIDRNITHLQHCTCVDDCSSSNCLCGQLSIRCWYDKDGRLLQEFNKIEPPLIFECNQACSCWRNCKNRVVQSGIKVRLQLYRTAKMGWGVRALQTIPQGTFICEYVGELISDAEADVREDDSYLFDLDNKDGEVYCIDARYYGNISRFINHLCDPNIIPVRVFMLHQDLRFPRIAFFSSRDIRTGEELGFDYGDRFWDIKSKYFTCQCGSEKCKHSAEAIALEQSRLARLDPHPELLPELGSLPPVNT
How it was run: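 Step 1: enzyme (final 20 nM) with compound, 15 min RT. Step 2: substrate peptide 500 nM and SAM 20 uM, 2 h RT. Step 3: anti-H3K9me1 antibody and AlphaScreen beads, 10 min, then plate read.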
With `Cn1c(SCC(=O)OCc2ccccc2)nnc1-c1ccco1` the Potency was inconclusive: 28.2 µM [inhibitor, partial curve, poor fit]. In the case of `COc1ccc(N=c2ssnc2Cl)cc1`, the Potency is reported as active: 1.26 µM. In the case of `CN1CCN(Cc2coc3c(Cl)cc(Cl)cc3c2=O)CC1`, the Potency is reported as active: 25.1 µM. In the case of `COc1ccc(CCNC(=O)C2(C)CCC(=O)N2Cc2ccc3c(c2)OCO3)cc1OC` (stereo not drawn), the Potency is reported as inconclusive: 79.4 µM [inhibitor, single point]. `COC(=O)c1ccc(CNC(=O)c2nc(Cn3nc(C)c(Br)c3C)no2)cc1` was tested, and the Potency was “inactive”. In the case of `Cc1ccccc1-n1c(SCc2csc(Nc3ccccc3)n2)nnc1-c1cccnc1`, the Potency is reported as active: 25.1 µM. With `COc1ccc(C2/C=C\CN(S(=O)(=O)/C=C/c3ccccc3)[C@H](Cc3ccccc3)C(=O)N2Cc2ccc(F)cc2)cc1` (stereo partly drawn) the Potency was inconclusive: 12.6 µM [inhibitor, single point]. `Nc1ccc(Sc2ccccc2CC(=O)O)cc1` was tested, and the Potency was inconclusive: 8.91 µM [inhibitor, single point]. With `O=S(=O)(c1ccc(F)cc1)N1CCC(N2CCCCCC2)CC1` the Potency was inconclusive: 22.4 µM [inhibitor, single point]. `COc1cc(CNc2nnnn2C)cc(OC)c1OC` was tested, and the Potency was inconclusive: 63.1 µM [inhibitor, partial curve, poor fit]. With `COc1cccc(C(=O)NCC2(c3ccccc3)CCCC2)c1OC` the Potency was “inactive”. In the case of `COc1ccc(OC)c(NC(=O)CCCSc2ccccc2)c1`, the Potency is reported as “inactive”. With `COCCn1c(SCC(=O)NCC2CCCO2)nc2c([nH]c3ccccc32)c1=O` (stereo not drawn) the Potency was “inactive”. For `CCOc1ccc(CC(=O)NNC(=O)/C=C/C(=O)O)cc1`, the Potency was active: 31.6 µM. For `CCOc1c2ccc(C(=O)NCc3ccc4c(c3)OCO4)cc2nn1CCOC`, the Potency was inconclusive: 3.16 µM [inhibitor, full curve, poor fit]. `COc1ccc(CN2C(=O)c3cccnc3C2=O)cc1S(=O)(=O)NCc1ccc(C)o1` was tested, and the Potency was inconclusive: 79.4 µM [inhibitor, single point]. For `c1ccc(Nc2nc(N3CCOCC3)nc(N3CCOCC3)n2)cc1`, the Potency was inconclusive: 8.91 µM [inhibitor, partial curve, poor fit]. With `COC(=O)c1ccccc1NC(=O)CSc1ncccn1` the Potency was “inactive”. For `CCOC(=O)CCC(=O)N(CCN(C(=O)CCC(=O)OCC)c1ccccc1)c1ccccc1`, the Potency was inconclusive: 1.26 µM [inhibitor, partial curve, poor fit]. In the case of `CC1Sc2ccc(S(=O)(=O)CCC(=O)NC3CCCC(C)C3C)cc2NC1=O` (stereo not drawn), the Potency is reported as “inactive”. In the case of `CN(Cc1ccccc1)C(=O)Cn1c(=O)c2cccn2c2ccc(F)cc21`, the Potency is reported as “inactive”. `COc1ccc(NC(=O)N2CCCc3ccccc32)cc1` was tested, and the Potency was inconclusive: 79.4 µM [inhibitor, single point]. `O=C1C(=O)N(CCN2CCOCC2)C(c2ccc(Cl)c(Cl)c2)/C1=C(/O)c1ccc2c(c1)OCO2` (stereo not drawn) was tested, and the Potency was inconclusive: 79.4 µM [inhibitor, single point]. For `CS(C)(=O)=O`, the activity, negative = inhibition was inactive: -40% [at 2.33 µM]. For `COCCn1nnnc1C1(N(Cc2cc3cc(C)ccc3[nH]c2=O)CC2CCCO2)CCN(C)CC1` (stereo not drawn), the Potency was inconclusive: 20 µM [inhibitor, single point]. For `O=S(=O)(/N=C(/Nc1cccc2ccccc12)c1ccccc1)c1cccs1`, the Potency was inconclusive: 22.4 µM [inhibitor, partial curve, poor fit]. In the case of `CCc1ccc2ncc(C(=O)c3ccccc3)c(N3CCOCC3)c2c1`, the Potency is reported as active: 56.2 µM. In the case of `O=C(CN1C(=O)c2ccccc2C1=O)Nc1ccc(N2CCOCC2)cc1`, the Potency is reported as inconclusive: 31.6 µM [inhibitor, single point]. In the case of `CN(Cc1ccccc1)c1ccc(C(CC(N)=O)NC(=O)Cc2ccc(Br)cc2)cc1[N+](=O)[O-]` (stereo not drawn), the activity, negative = inhibition is reported as inconclusive: -58.4% [inhibitor]. `N#Cc1ccccc1NC(=O)CSc1cn[nH]n1` was tested, and the Potency was inconclusive: 35.5 µM [inhibitor, single point]. For `CSc1ccccc1NC(=O)c1cc(C)on1`, the activity, negative = inhibition was inactive: -1.45% [at 12.7 µM]. In the case of `COc1ccc(CCN(C)CCCN2CC(c3ccccc3)CC2=O)cc1OC` (stereo not drawn), the Potency is reported as active: 50.1 µM. `CCN(CC)S(=O)(=O)c1cccc(-c2nnc(SCC(=O)NC)n2CCc2ccccc2)c1` was tested, and the Potency was inconclusive: 56.2 µM [inhibitor, partial curve, poor fit]. For `O=C(CN1CCOc2ccccc21)NCc1ccc(Cl)cc1`, the Potency was active: 50.1 µM. `CCCCn1c(SCC(=O)NCc2ccco2)nc2cc(S(N)(=O)=O)ccc21` was tested, and the Potency was inconclusive: 0.891 µM [inhibitor, partial curve, poor fit]. For `Cc1ccc2c(C)c(C(=O)N3CCC(c4nc5ccccc5s4)CC3)oc2c1C`, the Potency was “inactive”. `O=C(COC(=O)c1ccc(F)cc1Cl)NCc1ccco1` was tested, and the Potency was inconclusive: 50.1 µM [inhibitor, partial curve]. With `COC(=O)C1(Cc2ccc(O)c(CC3OC3(C)C)c2)OC(=O)C(O)=C1c1ccc(O)cc1` (stereo not drawn) the activity, negative = inhibition was inconclusive: -71.9% [inhibitor]. `COc1ccc(Nc2c(-c3ccco3)nc3cccc(C)n23)cc1` was tested, and the Potency was active: 25.1 µM. For `O=C(Nc1ccccc1N1CCCC1)C1CCN(S(=O)(=O)c2ccc(F)cc2)CC1`, the Potency was inconclusive: 3.98 µM [inhibitor, partial curve, poor fit]. For `CCN1CCN(C(=O)c2ccc3c(=O)n(CCc4ccccc4)c(=O)[nH]c3c2)CC1`, the Potency was inconclusive: 79.4 µM [inhibitor, partial curve, poor fit]. For `O=C(O)C(C(=O)O)=C1C2CC3CC(C2)CC1C3`, the Potency was inconclusive: 28.2 µM [inhibitor, single point]. `COc1ccc(OCCOc2ccc(S(=O)(=O)N3CCCC3)cc2C(N)=O)cc1` was tested, and the Potency was inconclusive: 11.2 µM [inhibitor, partial curve, poor fit]. In the case of `CSc1ccc(/C=C2\CCn3c2nc2cc(C(=O)O)ccc2c3=O)cc1`, the Potency is reported as inconclusive: 100 µM [inhibitor, single point]. `O=C1c2ccccc2NC(c2ccc3c(c2)OCCO3)N1c1ccc2c(c1)OCCO2` (stereo not drawn) was tested, and the Potency was inconclusive: 56.2 µM [inhibitor, partial curve, poor fit]. With `Cc1cccc(C(=O)NCC(=O)N2CCCC2)c1` the Potency was “inactive”. `CC(C)(C)CC(=O)Nc1nn[nH]n1` was tested, and the Potency was inconclusive: 39.8 µM [inhibitor, single point]. With `O=C(CSC1=NCCS1)N1CCc2ccccc21` the Potency was inconclusive: 1 µM [inhibitor, partial curve, poor fit]. With `Cc1occc1C(=O)NC1CCCN(Cc2ccc(Cl)cc2)C1` (stereo not drawn) the Potency was inconclusive: 79.4 µM [inhibitor, single point]. `Oc1c(C(c2ccccn2)N2CCCCC2)cc(Cl)c2cccnc12` (stereo not drawn) was tested, and the Potency was active: 7.08 µM. With `Cc1nc(N2CCN(C(=O)c3ccco3)CC2)c2oc3ccccc3c2n1` the Potency was inconclusive: 31.6 µM [inhibitor, single point]. `O=C(CCC(=O)c1ccccc1)Nc1ccccc1OC(F)F` was tested, and the Potency was “inactive”. `O=c1[nH]c2ccccc2cc1CN(Cc1cccnc1)S(=O)(=O)c1ccc([N+](=O)[O-])cc1` was tested, and the Potency was inconclusive: 35.5 µM [inhibitor, partial curve]. With `O=C(CSc1n[nH]c(-c2cccnc2)n1)Nc1ccc([N+](=O)[O-])cc1Br` the Potency was inconclusive: 89.1 µM [inhibitor, single point]. `Cc1ccnc(NS(=O)(=O)c2ccc(NC(=O)C34CC5CC(C)(CC(C)(C5)C3)C4)cc2)n1` was tested, and the Potency was inconclusive: 35.5 µM [inhibitor, single point]. In the case of `CC(C)=NOCc1ccc(-c2cn([C@@H]3COC[C@H]3O)nn2)cc1`, the Potency is reported as active: 39.8 µM. In the case of `O=S(=O)(c1cccc(C(F)(F)F)c1)N1CCC(Oc2ccc(-n3cnnn3)cc2)CC1`, the Potency is reported as “inactive”. `OC(COc1ccc(Cl)cc1)CN1CCC(Cc2ccccc2)CC1` (stereo not drawn) was tested, and the Potency was active: 28.2 µM. For `N#Cc1c(N)n[nH]c1-c1cc2c([nH]1)CCCC2`, the Potency was inconclusive: 28.2 µM [inhibitor, single point]. With `CC(C)NC(=O)NC(=O)COC(=O)c1ncc(Cl)c(Cl)c1Cl` the Potency was inconclusive: 39.8 µM [inhibitor, partial curve, poor fit]. With `CCCC(=O)O[C@]1(C(=O)COC(C)=O)CC[C@H]2C3C[C@H](F)C4=CC(=O)C=CC4(C)[C@@]3(F)[C@@H](O)CC21C` (stereo partly drawn) the activity, negative = inhibition was inactive: -6.1% [at 12.7 µM]. `Cc1ccc(C(=O)Nc2cccnc2)cc1[N+](=O)[O-]` was tested, and the Potency was inconclusive: 89.1 µM [inhibitor, partial curve, poor fit]. `Cc1cc(C)c(C)c(S(=O)(=O)N[C@@H](C)C(=O)OCc2cc(=O)n3cc(Br)ccc3n2)c1C` was tested, and the Potency was inconclusive: 50.1 µM [inhibitor, partial curve]. `Oc1ccc(O)c(-c2cnns2)c1` was tested, and the Potency was inconclusive: 12.6 µM [inhibitor, partial curve, poor fit]. `COc1ccccc1NS(=O)(=O)c1cccc(C(=O)N/N=C/c2ccccc2OCC(=O)O)c1` was tested, and the Potency was inconclusive: 44.7 µM [inhibitor, partial curve]. With `O=C(NCCCN1CCOCC1)c1ccccc1NS(=O)(=O)c1cc([N+](=O)[O-])ccc1Cl` the Potency was inconclusive: 79.4 µM [inhibitor, single point]. With `COc1ccccc1C(=O)NCC(=O)NC(C)c1ccc(-n2ccnc2)cc1` (stereo not drawn) the Potency was active: 10 µM. `Cc1cc(NCCO)nc(-n2nc(C)cc2C)n1` was tested, and the Potency was inconclusive: 0.282 µM [inhibitor, full curve, poor fit].
